Laboratory results taken from the supplement of paper PMC7266297.
Where a name gives a salt, the structure may show the parent alone. This is one part of the list. Repeats are few or missing, and single values can be far off.

Each compound was assayed on KB-3-1 (assay: growth inhibition relative to DMSO control (SRB); cervical cancer cells: KB-3-1 is the parent and KB-V1 overexpresses MDR1; SRB is the sulforhodamine B stain; higher = more growth inhibition). Settings: 1 µM; 72 h.
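Further: Read-out is SRB optical density at 490 nm, with the control being wells given 0.5% DMSO vehicle, and compound added one day after cells were plated.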

**Q.** How did the growth inhibition turn out when `COc1cc2ncnc(Oc3cccc(NC(=O)Nc4cc(C(C)(C)C(F)(F)F)on4)c3)c2cc1OC` was run?
**A.** 44%

**Q.** For `O=C(c1ccc(C(=O)N2CCC(N3CCCC3)CC2)c(Nc2ccccc2)c1)N1CCC(N2CCCC2)CC1`, which growth inhibition is on record?
**A.** < 0%

**Q.** For `CCOC(=O)CCNc1cc(N2CCc3ccccc3CC2)nc(-c2ccccn2)n1`, which growth inhibition is on record?
**A.** 68.5%

**Q.** For `O=C(Nc1c(Cl)cncc1Cl)c1ccc(OC(F)F)c(OCC2CC2)c1` [Roflumilast], which growth inhibition is on record?
**A.** < 0%

**Q.** How did the growth inhibition turn out when `CCC(=O)N1CCN(c2ccc(-n3c(=O)ccc4cnc5ccc(-c6cnc7ccccc7c6)cc5c43)cc2C(F)(F)F)CC1` [Torin 1] was run?
**A.** 82.4%

**Q.** How did the growth inhibition turn out when `COc1cc2c(cc1OC)CN(CCc1ccc(NC(=O)c3cc(OC)c(OC)cc3NC(=O)c3cnc4ccccc4c3)cc1)CC2` [Tariquidar] was run?
**A.** 43.7%

**Q.** `C[C@]12CCC(=O)C=C1[C@@H]1C[C@@H]1[C@H]1[C@@H]3[C@@H]4C[C@@H]4[C@@]4(CCC(=O)O4)[C@@]3(C)CC[C@@H]12` [Drospirenone] was tested. Which growth inhibition did it give?
**A.** 8.5%

**Q.** `COc1ccc2cccc(CCNC(C)=O)c2c1` [Agomelatine] was tested. Which growth inhibition did it give?
**A.** 38%

**Q.** `CC(C)CN(C[C@@H](O)[C@H](Cc1ccccc1)NC(=O)O[C@H]1CO[C@H]2OCC[C@H]21)S(=O)(=O)c1ccc(N)cc1` [Darunavir Ethanolate] was tested. Which growth inhibition did it give?
**A.** 32.6%

**Q.** `COC(=O)C1=C(C)NC(C)=C(C(=O)OC(C)C)C1c1cccc2nonc12` (configuration not stated) [Isradipine] was tested. Which growth inhibition did it give?
**A.** 18%

**Q.** How did the growth inhibition turn out when `CN[C@H]1CC[C@@H](c2ccc(Cl)c(Cl)c2)c2ccccc21` [Sertraline HCl] was run?
**A.** 31.1%

**Q.** With `CCCc1nn(C)c2c(=O)[nH]c(-c3cc(S(=O)(=O)N4CCN(C)CC4)ccc3OCC)nc12` [Sildenafil Citrate] as the compound, how does the growth inhibition read?
**A.** 10.6%
